# Source: the supplement of paper PMC3334620
# Over roughly 33,000 sequences, “E-score (-0.5 to 0.5)” has its median near -0.035; the highest 2% begin near 0.34. This is one part of the list.
# Target: T1, Mot3 (UniProt P54785)
# T1 sequence: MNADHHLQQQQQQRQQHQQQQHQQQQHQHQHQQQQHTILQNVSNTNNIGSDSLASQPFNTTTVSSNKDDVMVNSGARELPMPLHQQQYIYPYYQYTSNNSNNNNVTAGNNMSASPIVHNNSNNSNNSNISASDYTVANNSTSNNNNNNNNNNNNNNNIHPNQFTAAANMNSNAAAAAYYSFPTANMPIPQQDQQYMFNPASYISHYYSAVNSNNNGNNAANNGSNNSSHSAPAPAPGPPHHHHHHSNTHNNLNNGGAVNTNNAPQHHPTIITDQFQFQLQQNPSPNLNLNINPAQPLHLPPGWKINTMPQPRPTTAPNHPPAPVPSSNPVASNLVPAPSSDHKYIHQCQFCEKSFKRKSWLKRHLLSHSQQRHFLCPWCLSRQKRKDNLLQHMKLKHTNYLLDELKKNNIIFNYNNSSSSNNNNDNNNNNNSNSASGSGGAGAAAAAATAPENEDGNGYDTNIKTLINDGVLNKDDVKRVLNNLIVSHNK
# Assay: PBM E-score (8-mer binding enrichment) (E-score (-0.5 to 0.5)); higher = stronger / more preferred TF binding; most listed sequences are background and not binding sites
# Details: protein concentration: 200 nM; construct: GST-full length
# Outline: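 E-scores (a modified Wilcoxon-Mann-Whitney statistic) were assigned by the Universal PBM Analysis Suite to every ungapped eight-base word pooled with its reverse complement. The input came from universal all-10-mer Agilent arrays made double-stranded by primer extension and probed with GST-tagged yeast transcription factors at about 100-200 nM. Fluorescent anti-GST detected bound protein, and masliner normalised the scans.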
row,Sequence,PBM E-score
1,AGCGCTTC,-0.0956
2,CAAAATGG,-0.0164
3,CCCGAACG,-0.257
4,AGTATCAG,-0.111
5,ATGGCAAG,-0.174
6,CTCGAGGA,-0.107
7,ACGGGACC,-0.117
8,AAGAGCAT,0.133
9,ACATGGTG,0.319
10,CTTTGAGA,0.0107
11,ATTCCGCA,-0.169
12,AACCCATG,0.185
13,AAATGTTC,0.0938
14,CTAAAAGC,-0.334
15,CAACATTC,0.0308
16,TGCCACAA,0.0602
17,CGTTACGC,0.118
18,CCCCCTTC,-0.372
19,ACAACGGA,0.0699
20,ATCACATG,0.195
21,GCCAATAC,0.13
22,ATAAGTGA,-0.0522
23,AGCGTAGA,-0.0536
24,AGCTGCCC,-0.161
25,AATCAGGA,0.0803

row,Sequence,PBM E-score
1,GACCCGCC,-0.0825
2,CTACATAG,0.316
3,CTGATCCC,-0.0724
4,GCTTGCGA,-0.0364
5,ATTCATTG,0.143
6,ACCACGAC,-0.194
7,AAGCTCAC,-0.0799
8,AGATGGCT,-0.146
9,CCCCTCGG,-0.121
10,ATGAGCGC,-0.103
11,AAAGATTA,0.0709
12,CGCTCTTC,-0.174
13,AAACTAGT,0.0999
14,GATTCCGA,-0.315
15,GGACAGAA,-0.199
16,CAGACTCA,-0.127
17,GTACACCA,0.134
18,ACTCGCCG,-0.0977
19,CATCCCGC,-0.167
20,CGTCGCGC,-0.378
21,GGACGATA,-0.153
22,AGCCGCGA,-0.27
23,ATACGAGG,-0.147
24,GATGCAAC,-0.199
25,CTTGCTGC,-0.174

row,Sequence,PBM E-score
1,CGTTCAAC,0.0786
2,AGGAAAGG,0.371
3,ACACGAAG,0.298
4,TTAAGGAA,0.398
5,ACCGTGAG,-0.254
6,CTAGATCA,-0.132
7,CATGGCTA,-0.0348
8,GCTTATTA,0.108
9,ACGTTATG,0.161
10,CCTAACAG,0.0654
11,TCGCCTAA,0.0287
12,CGCAGTAC,-0.235
13,GACGGGCA,-0.0809
14,AGCTCATC,-0.188
15,AACTCGAA,0.0821
16,TCTCACAA,-0.0862
17,ACCTCTTA,-0.00725
18,AAAGGCTC,0.354
19,CGTCGATA,0.0759
20,ATCAAAAC,-0.118
21,GACTATCA,-0.0607
22,CAGTTGGA,-0.257
23,CTGATTCA,-0.0589
24,GATGTAGC,-0.18
25,GGAAGTCC,-0.206

row,Sequence,PBM E-score
1,ATCAGACC,-0.0722
2,AATATGCA,-0.152
3,ATCGCAAC,-0.0906
4,AATGAGCT,-0.0919
5,GACAGCAA,-0.173
6,ACTGGTCG,-0.144
7,ACTCAAGC,-0.104
8,GATCGCAC,0.114
9,CTGGACCC,-0.297
10,ACGATCTA,0.0861
11,CGGTAAAG,0.0179
12,GAAGAGTC,-0.0062
13,CCCTGATA,-0.177
14,AGGGCGAG,-0.161
15,AGTAATCC,0.104
16,ACGAGGGC,-0.126
17,GCCTCATA,-0.101
18,ACGGATGG,-0.0994
19,ATGTTAAA,0.392
20,CATTGCCC,-0.182
21,AATCGAGT,-0.051
22,CATACATA,0.329
23,ATACACGA,0.352
24,AGACAGGC,0.23
25,AAGGTCCT,-0.099

row,Sequence,PBM E-score
1,AGTGTTCG,-0.03
2,CGATACCC,-0.139
3,AATAACGA,0.0862
4,ATCCGCGG,-0.195
5,CTACCACC,-0.155
6,GTGACCCA,-0.0984
7,CGTGCACG,-0.0903
8,AATTGAAT,0.125
9,CCACCACC,-0.172
10,GATGTTTA,0.125
11,ATAATAGA,-0.0252
12,CGACCACC,-0.275
13,CACAGACC,0.0761
14,CTCCGTTC,-0.0461
15,AATCTAGC,-0.198
16,GCATCAGC,-0.0634
17,TCCCAAAA,0.0948
18,TAGCATCA,0.0801
19,AATCTGAA,0.0593
20,CGTCTCGC,-0.217
21,AGCAACTC,0.00666
22,ACGGCCAA,0.0182
23,CAAGCAGG,-0.0175
24,TAAAATTA,0.12
25,AGAACCCG,-0.123

row,Sequence,PBM E-score
1,ATTTATCC,0.00874
2,TCATAACA,0.255
3,ATCTCTAA,-0.217
4,CCTTACGA,0.121
5,GAAATTAA,0.189
6,CACTCTCA,-0.156
7,ACAGATCA,0.00293
8,GGCGTGGA,-0.277
9,CACATAGA,0.0163
10,CGTGTGAG,0.102
11,AAAACTCA,0.0802
12,ACGGCACT,-0.139
13,GAATGATA,0.0188
14,CATCGACC,-0.00064
15,AGATGTGA,0.0833
16,AAGCAATT,0.193
17,TATGAAGA,-0.157
18,GCATTTTA,0.00137
19,AGGAATCC,-0.0979
20,CCAGTTCG,-0.111
21,CTTACGCC,0.106
22,ATCGGGTA,-0.0551
23,TACATCGA,0.0651
24,ACGCTGAC,0.0943
25,CAGGCCCA,-0.0213

row,Sequence,PBM E-score
1,GTACCAAC,0.13
2,ATCGAAAC,-0.134
3,GCCTAAAA,0.309
4,CCTGCGCA,-0.0571
5,ACAGCTAT,-0.0191
6,CCGTCCTA,-0.135
7,CAGTGACG,-0.0721
8,GCTGTTAA,0.211
9,ACGCGTTG,0.3
10,CTGCTACC,-0.00184
11,AGTGAACG,-0.121
12,CCATAGTA,-0.0932
13,CAATTACC,0.12
14,GCTTAGTA,-0.00203
15,ATTCTCGA,-0.00831
16,ATCGTGAC,-0.00992
17,GCCAACCC,-0.131
18,GAGGTTAA,0.127
19,AGCGATTC,-0.0991
20,ATTTTATC,-0.0884
21,AGAGGCCC,-0.323
22,ACGCTACC,-0.227
23,AAATACGA,0.122
24,ACTCCTTG,-0.0271
25,GCCATCGA,-0.0439

row,Sequence,PBM E-score
1,CAGGAGGC,-0.0461
2,GGGGTCCA,-0.182
3,ACGAGGCA,0.205
4,CAAGGTAG,0.0907
5,CGGTCGTA,-0.27
6,GCAAAAGC,0.194
7,CGGCAAAA,-0.112
8,CACGAGGC,0.0149
9,CTTTCGCA,0.00446
10,CTTCGGTC,-0.0958
11,ATCTAAAT,0.0145
12,CGCCGGAG,-0.221
13,AACTAAAC,0.13
14,AACAGACT,0.146
15,AGCTAGGA,-0.0538
16,AAGGGGAA,-0.0624
17,GCACCCAC,0.153
18,AATCTGGG,-0.227
19,ATAAGCGG,-0.234
20,CCCGTACC,-0.0401
21,ACTAGGAT,0.0413
22,ACAGGGGC,0.12
23,AAGACAGT,-0.0989
24,AGTAGAAG,0.0882
25,CCCCGAAC,-0.0861

row,Sequence,PBM E-score
1,CAGTGGTA,-0.0277
2,CCCCTGAC,-0.12
3,GATTCTCC,-0.355
4,ATGACCGG,-0.243
5,TATGTGGA,0.0211
6,AGTATTTC,-0.0903
7,TAGGAGAA,0.135
8,AAATCGGT,-0.0942
9,ACTCGAGC,0.0195
10,CCCTTCAA,0.151
11,AAACTCGT,0.0121
12,GTGGCCGA,-0.285
13,CAGTTAGC,-0.274
14,AAACTGAG,-0.289
15,AACGATCA,0.0691
16,CACTCAGA,-0.0203
17,GTGGATTA,-0.143
18,AGCAGGAC,-0.096
19,CACCTTCA,0.152
